Source: the supplement of paper PMC10126150
Values marked as one replicate rest on one cluster of the flow cell; about a third of the high ones do not repeat.

Tested on: ATP
Experiment: switch fluorescence ratio, 500 uM ATP over buffer (Cy3 cluster intensity, sum of 5 cycles each) (fold (ratio)); higher = stronger signal-on switching upon ATP binding; sequences stand for … in TCGTCGGCAGCGTCAGATGTGTATAAGAGACAGTTTTTTTTTTTTTTTTTTTTTTTTT…TC
Conditions: aptamer strand: ATP DNA aptamer (quencher-CACCTGGGGGAGTATTGCGGAGGAAGG + anchor), 100 nM annealed; ATP concentration: 500 uM; one replicate
Outline: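 Per cluster, summed Cy3 intensity from the target cycles was divided by that from the buffer cycles to give the fluorescence ratio, then averaged per switch-domain sequence. Clusters outside 100-1000 RFU were excluded. The Cy3-labelled switching-strand clusters, on a modified Illumina MiSeq flow-cell, were annealed to 100 nM quencher-labelled ATP aptamer and imaged in selection buffer, then after 15 min with 500 uM ATP at 22 °C, for five cycles with NaOH stripping and re-annealing between them.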
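Also: ATP exposure 15 min at 22 °C before imaging.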

TCGCCGGTTT gave a switch fluorescence ratio of 1.03.

Work on GGGGTACCCC yielded a switch fluorescence ratio of 1.01.

In the case of CTAACGACCT, the switch fluorescence ratio is reported as 1.42.

AACTGCAGAT showed a switch fluorescence ratio of 1.02.

In the case of CGTAGCGGCT, the switch fluorescence ratio is reported as 1.11.

With AGGGACTGA the switch fluorescence ratio was 1.05.

TAACGAGCCG showed a switch fluorescence ratio of 1.11.

ACCCACTCGT gave a switch fluorescence ratio of 1.36.

GTTACACAAA was tested, and the switch fluorescence ratio was 1.03.

With CCAAGTAGG the switch fluorescence ratio was 1.02.

With ACTTAGTGAA the switch fluorescence ratio was 1.08.

For GAACCATGAC, the switch fluorescence ratio was 1.3.

For GGGCAGAGTC, the switch fluorescence ratio was 0.998.

TAAGGCCTTT gave a switch fluorescence ratio of 0.972.

GCTATTTGGT was tested, and the switch fluorescence ratio was 0.98.

CCCAGATGCC gave a switch fluorescence ratio of 1.12.

TTAATCTTAG showed a switch fluorescence ratio of 1.05.

In the case of CTGCTATTTC, the switch fluorescence ratio is reported as 1.14.

GTTGGTCTGT showed a switch fluorescence ratio of 0.961.

AATACGCACG showed a switch fluorescence ratio of 1.64.

Work on GGGCCACTCT yielded a switch fluorescence ratio of 1.03.

GGTAATATAA showed a switch fluorescence ratio of 1.

CACAGAGAAA showed a switch fluorescence ratio of 1.05.

GAAAAAGTGT showed a switch fluorescence ratio of 0.992.

In the case of ACTCGTATGT, the switch fluorescence ratio is reported as 1.01.

For TCCTGGTCTA, the switch fluorescence ratio was 1.03.

TGGGGTACCA showed a switch fluorescence ratio of 1.01.

CAGCTTTGGC gave a switch fluorescence ratio of 0.959.

AGCGGGACAG was tested, and the switch fluorescence ratio was 1.

In the case of TACTGTCGGT, the switch fluorescence ratio is reported as 0.999.

CGATCGGCCC showed a switch fluorescence ratio of 0.977.

GAATGAGCTA gave a switch fluorescence ratio of 1.02.

ATCTTAGTAG showed a switch fluorescence ratio of 1.01.

With ATGGTCGATA the switch fluorescence ratio was 1.

GCTGCGTCTT gave a switch fluorescence ratio of 1.

In the case of GATAAAAGGT, the switch fluorescence ratio is reported as 1.06.

CACCAAGCCC gave a switch fluorescence ratio of 1.08.

TAATTTATGT was tested, and the switch fluorescence ratio was 0.953.

For CCCGGCAGGT, the switch fluorescence ratio was 1.1.

With GATACGTGTG the switch fluorescence ratio was 0.962.

Work on GGTTGGCGAG yielded a switch fluorescence ratio of 0.986.

Sequence ATTTTCCGGT has a switch fluorescence ratio of 1.02.

Work on TTGATCGAAC yielded a switch fluorescence ratio of 1.05.

Sequence TGATTCATCT has a switch fluorescence ratio of 1.05.

AACTTTCGCA was tested, and the switch fluorescence ratio was 1.1.

GCCGGTAAGT was tested, and the switch fluorescence ratio was 0.998.

TGCATACGTT was tested, and the switch fluorescence ratio was 1.04.

Sequence ACAACTGTGC has a switch fluorescence ratio of 0.973.

ACTGCAGTTC gave a switch fluorescence ratio of 1.01.

CAGTGGTTCC showed a switch fluorescence ratio of 1.08.

Work on TAACGTGACG yielded a switch fluorescence ratio of 1.04.

With TGCTTTCTGA the switch fluorescence ratio was 1.03.

CAGTATACTG gave a switch fluorescence ratio of 1.04.

Work on GTGCTAGTTG yielded a switch fluorescence ratio of 1.02.

For AAGGTATAGG, the switch fluorescence ratio was 0.988.

In the case of TGAACGACAT, the switch fluorescence ratio is reported as 1.03.

GGTATAAGTC gave a switch fluorescence ratio of 1.04.

Work on GGCGGCGCAC yielded a switch fluorescence ratio of 1.01.

CTCGAAATGT gave a switch fluorescence ratio of 1.08.

Sequence GAGGGAAAGC has a switch fluorescence ratio of 0.984.

CATATTGCAC gave a switch fluorescence ratio of 1.03.

Work on TACATGCCCG yielded a switch fluorescence ratio of 1.13.

GTAAAATGGT gave a switch fluorescence ratio of 1.

Sequence CGGAAAGCAA has a switch fluorescence ratio of 2.82.

ACCACTTGAG was tested, and the switch fluorescence ratio was 1.07.

In the case of CCACGAATAT, the switch fluorescence ratio is reported as 1.07.

GCGCTACAGG showed a switch fluorescence ratio of 1.08.

CTCCTGTGCG was tested, and the switch fluorescence ratio was 1.06.

For TTGCAGGTTA, the switch fluorescence ratio was 1.01.

TAGCCGGATT was tested, and the switch fluorescence ratio was 1.11.

GGCCGTTGC was tested, and the switch fluorescence ratio was 1.03.

With ACGTCAGGGA the switch fluorescence ratio was 1.01.

AGGAGGCCAC was tested, and the switch fluorescence ratio was 2.13.

For GCTTCAAGGG, the switch fluorescence ratio was 0.934.

Work on GACACGTGAA yielded a switch fluorescence ratio of 1.07.

CTTCTTTTA showed a switch fluorescence ratio of 0.965.

In the case of CTCGTTTTAG, the switch fluorescence ratio is reported as 1.03.

Work on CAGTAGCGAT yielded a switch fluorescence ratio of 5.88.

With TAATCGGGC the switch fluorescence ratio was 1.04.

GGTGATTCTC showed a switch fluorescence ratio of 0.998.

Work on GTAGTTTATA yielded a switch fluorescence ratio of 0.952.

For TATTATGCCC, the switch fluorescence ratio was 1.02.

For AGCCTGCTAA, the switch fluorescence ratio was 1.

In the case of GACGAACAAC, the switch fluorescence ratio is reported as 1.54.

ATATGCCCAC was tested, and the switch fluorescence ratio was 1.05.

TAGGTGGGAC gave a switch fluorescence ratio of 0.983.

Work on CAGCGCTTAT yielded a switch fluorescence ratio of 1.04.

CGCCGGTTCC showed a switch fluorescence ratio of 1.03.

Work on TACGGTTAGT yielded a switch fluorescence ratio of 1.04.

GATGGACGCC showed a switch fluorescence ratio of 1.04.

With ATATCTTCTT the switch fluorescence ratio was 1.05.

With ATAATTTTGT the switch fluorescence ratio was 0.998.

With TCTGGTCCTG the switch fluorescence ratio was 0.979.

CGGTGTCTTG was tested, and the switch fluorescence ratio was 0.963.

In the case of GGCCGGAAAG, the switch fluorescence ratio is reported as 1.02.

With AACGCGAGCA the switch fluorescence ratio was 0.977.

With GGCAAATCAG the switch fluorescence ratio was 1.02.

Work on AAGTTCTTCA yielded a switch fluorescence ratio of 1.05.

With ATCTCCAAAG the switch fluorescence ratio was 1.13.

With TCTGGTGT the switch fluorescence ratio was 1.06.

TCGAAGGAGG was tested, and the switch fluorescence ratio was 0.998.

TTGGAGGAGG was tested, and the switch fluorescence ratio was 1.

TATCGTAATT gave a switch fluorescence ratio of 0.98.

For TAAGGGATGC, the switch fluorescence ratio was 1.02.

With CCAACTACTT the switch fluorescence ratio was 1.04.

CTGGCAGTCG gave a switch fluorescence ratio of 0.99.

ATTAAGGGTA showed a switch fluorescence ratio of 1.01.

For GGCACCCAGC, the switch fluorescence ratio was 1.02.

ATTGGTGAGT was tested, and the switch fluorescence ratio was 1.02.

Work on CTGAAATTTC yielded a switch fluorescence ratio of 1.05.

In the case of CAAATTTAAC, the switch fluorescence ratio is reported as 0.981.

Work on CTCTGATCT yielded a switch fluorescence ratio of 1.04.

In the case of TGAGTGGGT, the switch fluorescence ratio is reported as 0.97.

With CGCTTTCCTT the switch fluorescence ratio was 1.07.

AGAACCC gave a switch fluorescence ratio of 1.03.

For GCAGTCAGG, the switch fluorescence ratio was 1.02.

With CATAAAGAAC the switch fluorescence ratio was 0.992.

CCGTTACGTG was tested, and the switch fluorescence ratio was 1.07.

In the case of GGGTCACTAA, the switch fluorescence ratio is reported as 1.01.

Work on ATATTATAAG yielded a switch fluorescence ratio of 1.03.

TGTAACTACT was tested, and the switch fluorescence ratio was 1.02.

Sequence CTAACAAAAT has a switch fluorescence ratio of 1.03.

Work on CATCATCTCG yielded a switch fluorescence ratio of 0.972.

Sequence CCAAATCGGC has a switch fluorescence ratio of 0.914.

Sequence TCACAAGGGG has a switch fluorescence ratio of 2.03.

With CCGTTTATGG the switch fluorescence ratio was 1.01.

GGGACTCCGT was tested, and the switch fluorescence ratio was 1.04.

In the case of GTTCACGTTG, the switch fluorescence ratio is reported as 0.988.

Work on TATAGTGTTT yielded a switch fluorescence ratio of 1.02.

ATATCCGTCC showed a switch fluorescence ratio of 1.31.

In the case of ATCCAGCATC, the switch fluorescence ratio is reported as 1.71.

In the case of ACTCGTTCCG, the switch fluorescence ratio is reported as 1.01.

Work on GTTGCTTACT yielded a switch fluorescence ratio of 1.

ACTGGGGCAT gave a switch fluorescence ratio of 1.11.

In the case of TTTGCCCTCT, the switch fluorescence ratio is reported as 0.978.

In the case of AAGTAAAGTA, the switch fluorescence ratio is reported as 0.988.

For GGGCAGTACC, the switch fluorescence ratio was 3.13.

With GGGCATTCGG the switch fluorescence ratio was 0.974.

CATCCGTAAA was tested, and the switch fluorescence ratio was 2.52.

Sequence ATTAGGTGGT has a switch fluorescence ratio of 1.02.

In the case of TAAGTGTTGA, the switch fluorescence ratio is reported as 1.07.

Work on AAGTTCAGA yielded a switch fluorescence ratio of 0.987.

For GAAGTAGGGT, the switch fluorescence ratio was 0.971.

In the case of CTGGGAAGA, the switch fluorescence ratio is reported as 1.

Work on GACGTCTAGG yielded a switch fluorescence ratio of 1.02.

With ATTAGCAGGT the switch fluorescence ratio was 1.02.

ATCGTCCAAC gave a switch fluorescence ratio of 1.02.

Sequence CACTGCGTCG has a switch fluorescence ratio of 0.995.

For AATCCGTCGG, the switch fluorescence ratio was 1.03.

With AAATGGGAAC the switch fluorescence ratio was 1.

Work on GGCGAATACC yielded a switch fluorescence ratio of 1.12.

ATGCACATCC showed a switch fluorescence ratio of 1.07.

Sequence AATTTCGTTA has a switch fluorescence ratio of 1.01.
